Test results reported in the supplement of paper PMC7826260.
The list shows a part of the results. One pool of 16,384 single-stranded DNAs met each Rep nickase domain in vitro (1 h at 37 °C, 3 µM enzyme); the outer parts of the 90-letter strands are left off. The score is log2 (uncut reads / reads without enzyme); uncut sequences lie near 0, cut ones below; no hit call is given. The scaling is to total reads; values above 0 arise when much of the pool is cut.

Columns and labels:
Assay in all cases: uncleaved DNA left, log2 of reads against the no-enzyme library (log2 ratio); higher = less cleavage (more negative = more Rep cleavage of the k-mer); sequences stand for … in CTCGTCCG…ACCGGAGA
[1] = tested on: T1, Rep nickase domain of Muscovy duck circovirus
T1 sequence (protein, residues 1-111, tag omitted): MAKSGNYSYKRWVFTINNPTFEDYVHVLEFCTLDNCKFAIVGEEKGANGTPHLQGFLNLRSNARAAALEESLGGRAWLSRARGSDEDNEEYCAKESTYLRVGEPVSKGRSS
Procedure: (§1)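 A pool of 90-nt single-stranded DNAs with seven random bases just before the constant AC of the nick site (name = the seven bases) was cut by 3 µM recombinant His6-SUMO-tagged Rep nickase domain (300 nM DNA, 50 mM HEPES pH 8.0, 50 mM NaCl, 1 mM MnCl2, 1 h, 37 °C, three replicates). Uncut DNA was amplified and sequenced.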

[2] = tested on: T2, Rep nickase domain of banana bunchy top virus
T2 sequence (protein, residues 1-94, tag omitted): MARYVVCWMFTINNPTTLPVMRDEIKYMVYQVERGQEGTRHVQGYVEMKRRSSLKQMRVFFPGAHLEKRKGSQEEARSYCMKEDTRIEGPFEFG
Procedure: as §1

[3] = tested on: T3, Rep nickase domain of cabbage leaf curl virus
T3 sequence (protein, residues 1-116, tag omitted): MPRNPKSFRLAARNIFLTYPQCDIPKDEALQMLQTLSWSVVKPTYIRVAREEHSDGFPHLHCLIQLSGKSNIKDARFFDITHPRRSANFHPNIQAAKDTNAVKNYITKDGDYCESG
Procedure: as §1

[4] = tested on: T4, Rep nickase domain of chickpea chlorotic dwarf virus
T4 sequence (protein, residues 1-124, tag omitted): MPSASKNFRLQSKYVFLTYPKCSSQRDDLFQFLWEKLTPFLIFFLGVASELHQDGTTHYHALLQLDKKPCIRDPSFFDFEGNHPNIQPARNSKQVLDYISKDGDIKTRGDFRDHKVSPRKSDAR
Procedure: as §1

[5] = tested on: T5, Rep nickase domain of faba bean necrotic yellows virus
T5 sequence (protein, residues 1-98, tag omitted): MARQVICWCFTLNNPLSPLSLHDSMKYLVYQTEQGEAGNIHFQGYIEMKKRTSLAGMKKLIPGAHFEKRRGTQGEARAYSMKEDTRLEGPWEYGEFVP
Procedure: as §1

[6] = tested on: T6, Rep nickase domain of maize striate mosaic virus
T6 sequence (protein, residues 1-117, tag omitted): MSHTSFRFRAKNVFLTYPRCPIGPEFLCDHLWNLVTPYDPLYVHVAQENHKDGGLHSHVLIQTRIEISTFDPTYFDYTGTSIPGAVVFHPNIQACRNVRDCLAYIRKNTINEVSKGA
Procedure: as §1

[7] = tested on: T7, Rep nickase domain of porcine circovirus 2
T7 sequence (protein, residues 2-116, tag omitted): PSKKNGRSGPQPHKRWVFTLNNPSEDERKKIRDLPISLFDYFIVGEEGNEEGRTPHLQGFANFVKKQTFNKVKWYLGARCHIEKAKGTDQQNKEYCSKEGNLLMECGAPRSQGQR
Procedure: as §1

[8] = tested on: T8, Rep nickase domain of tomato golden mosaic virus
T8 sequence (protein, residues 1-124, tag omitted): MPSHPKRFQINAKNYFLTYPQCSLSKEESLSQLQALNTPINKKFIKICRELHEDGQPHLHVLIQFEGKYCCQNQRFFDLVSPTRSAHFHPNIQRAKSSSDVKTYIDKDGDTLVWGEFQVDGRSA
Procedure: as §1

[9] = tested on: T9, Rep nickase domain of tomato yellow leaf curl virus
T9 sequence (protein, residues 1-136, tag omitted): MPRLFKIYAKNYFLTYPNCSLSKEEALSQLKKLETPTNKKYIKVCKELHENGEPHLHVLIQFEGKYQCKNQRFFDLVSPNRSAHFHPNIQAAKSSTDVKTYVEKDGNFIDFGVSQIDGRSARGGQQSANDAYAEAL
Procedure: as §1

[10] = tested on: T10, Rep nickase domain of wheat dwarf virus
T10 sequence (protein, residues 1-137, tag omitted): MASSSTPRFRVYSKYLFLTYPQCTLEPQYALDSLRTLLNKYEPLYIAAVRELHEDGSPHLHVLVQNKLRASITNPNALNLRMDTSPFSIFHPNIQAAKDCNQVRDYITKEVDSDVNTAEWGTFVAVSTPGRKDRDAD
Procedure: as §1

Sequence | uncleaved DNA left (log2) [1] | uncleaved DNA left (log2) [2] | uncleaved DNA left (log2) [3] | uncleaved DNA left (log2) [4] | uncleaved DNA left (log2) [5] | uncleaved DNA left (log2) [6] | uncleaved DNA left (log2) [7] | uncleaved DNA left (log2) [8] | uncleaved DNA left (log2) [9] | uncleaved DNA left (log2) [10]
CTATCAG | 0.0396 | 0.182 | -0.71 | -0.279 | 0.137 | -1.03 | 0.237 | 0.162 | 0.0905 | -0.0509
CTGCAAG | 0.118 | 0.00411 | -0.846 | -0.399 | 0.0678 | -1.2 | 0.155 | -0.078 | 0.129 | -0.152
ATTCAAG | 0.0511 | 0.0114 | -0.742 | -0.3 | 0.087 | -1.13 | 0.167 | 0.0454 | 0.0185 | 0.0297
GGATGCG | -0.0132 | -0.0665 | -0.283 | 0.967 | 0.115 | 0.468 | 0.0921 | -0.0553 | -0.139 | -0.145
TATGTAG | 0.0538 | -0.0735 | -0.809 | -0.401 | 0.123 | -1.08 | 0.137 | 0.0201 | 0.104 | -0.0154
TCATAGC | -0.0724 | -0.134 | -0.734 | -0.66 | -0.112 | -1.37 | -0.0396 | -0.294 | -0.0776 | -0.117
CGCGTGA | -0.119 | -0.279 | -0.258 | -0.293 | -0.212 | -0.345 | -0.0497 | -0.196 | -0.254 | -0.199
TTTAGTC | -0.0143 | 0.0539 | 0.154 | -0.0662 | -0.0288 | -0.701 | 0.00392 | -0.0584 | -0.0226 | 0.0264
CCGCATT | -0.0521 | -0.093 | -0.167 | -1.28 | -0.116 | -0.395 | -0.613 | -0.191 | -0.0543 | -0.121
GGGAGTT | 0.0174 | 0.138 | 0.791 | 1.94 | 0.0567 | 2.24 | 0.178 | 0.0442 | 0.0412 | 0.0339
GGCGAAT | -0.12 | -0.128 | 0.324 | 1.08 | -0.0374 | 1.76 | -0.0149 | 0.037 | -0.0339 | 0.0529
TTTAGTG | 0.168 | -0.0327 | -0.432 | -0.654 | 0.0792 | -1.05 | 0.191 | 0.0671 | 0.00339 | -0.0222
CAGTTTA | -0.221 | -0.419 | -0.109 | -0.244 | -0.746 | 0.0986 | -2.43 | -0.0172 | -0.159 | -0.169
GGAGTGT | 0.159 | 0.0032 | 0.57 | 1.24 | 0.0564 | 1.7 | 0.157 | 0.105 | 0.0948 | 0.0189
ATTGTGT | 0.0352 | -0.147 | -0.814 | -0.755 | 0.0737 | -1.19 | -0.184 | -0.062 | 0.0293 | -0.173
